PMC9911399, “Two distinct binding modes provide the RNA-binding protein RbFox with extraordinary sequence specificity”
Changes are numbered by the printed parent chain; changes in the protein carry UniProt numbers. Some of the results follow.

T1: RBFOX1 RRM RbFoxmut (Fox-RRM*) (Homo sapiens, UniProt Q9NWB1 109-208, R118D;E147R;N151S;E152T)
T1 sequence: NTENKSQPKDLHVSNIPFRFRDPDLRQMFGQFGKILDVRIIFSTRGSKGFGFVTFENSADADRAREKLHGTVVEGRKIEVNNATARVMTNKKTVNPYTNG

B1: GACCACU (DNA:RNA)
RNA: GGGAGACCGGAAUUCAGAUUGUCCGACCACUUUAAAUCCCGUCGUAGCCACCA
DNA 1: CAATCTGAATTCCGGTCTCCC
DNA 2: TGGTGGCTACGACGGGATT
B2: GGUUGUG (DNA:RNA)
RNA: B1 RNA with A26G, C27U, C28U, A29G, C30U, U31G
DNA 1: CAATCTGAATTCCGGTCTCCC
DNA 2: TGGTGGCTACGACGGGATT
B3: ACCCCCU (DNA:RNA)
RNA: B1 RNA with G25A, A26C, A29C
DNA 1: CAATCTGAATTCCGGTCTCCC
DNA 2: TGGTGGCTACGACGGGATT
B4: GCUCAGA (DNA:RNA)
RNA: B1 RNA with A26C, C27U, C30G, U31A
DNA 1: CAATCTGAATTCCGGTCTCCC
DNA 2: TGGTGGCTACGACGGGATT
B5: AAAAAAG (DNA:RNA)
RNA: B1 RNA with G25A, C27A, C28A, C30A, U31G
DNA 1: CAATCTGAATTCCGGTCTCCC
DNA 2: TGGTGGCTACGACGGGATT
B6: GCCACGA (DNA:RNA)
RNA: B1 RNA with A26C, C28A, A29C, C30G, U31A
DNA 1: CAATCTGAATTCCGGTCTCCC
DNA 2: TGGTGGCTACGACGGGATT
B7: GAGUCAC (DNA:RNA)
RNA: B1 RNA with C27G, C28U, A29C, C30A, U31C
DNA 1: CAATCTGAATTCCGGTCTCCC
DNA 2: TGGTGGCTACGACGGGATT
B8: AACAGCC (DNA:RNA)
RNA: B1 RNA with G25A, C28A, A29G, U31C
DNA 1: CAATCTGAATTCCGGTCTCCC
DNA 2: TGGTGGCTACGACGGGATT
B9: UUGUCCG (DNA:RNA)
RNA: B1 RNA with G25U, A26U, C27G, C28U, A29C, U31G
DNA 1: CAATCTGAATTCCGGTCTCCC
DNA 2: TGGTGGCTACGACGGGATT
B10: CAUCUGC (DNA:RNA)
RNA: B1 RNA with G25C, C27U, A29U, C30G, U31C
DNA 1: CAATCTGAATTCCGGTCTCCC
DNA 2: TGGTGGCTACGACGGGATT
B11: CUGCAGG (DNA:RNA)
RNA: B1 RNA with G25C, A26U, C27G, C30G, U31G
DNA 1: CAATCTGAATTCCGGTCTCCC
DNA 2: TGGTGGCTACGACGGGATT
B12: GCUACAU (DNA:RNA)
RNA: B1 RNA with A26C, C27U, C28A, A29C, C30A
DNA 1: CAATCTGAATTCCGGTCTCCC
DNA 2: TGGTGGCTACGACGGGATT
B13: AGUAAAC (DNA:RNA)
RNA: B1 RNA with G25A, A26G, C27U, C28A, C30A, U31C
DNA 1: CAATCTGAATTCCGGTCTCCC
DNA 2: TGGTGGCTACGACGGGATT
B14: CGAGGUG (DNA:RNA)
RNA: GGGAGACCGGAAUUCAGAUUGUCCCGAGGUGUUAAAUCCCGUCGUAGCCACCA
DNA 1: CAATCTGAATTCCGGTCTCCC
DNA 2: TGGTGGCTACGACGGGATT
B15: GAUUGGG (DNA:RNA)
RNA: B14 RNA with C25G, G26A, A27U, G28U, U30G
DNA 1: CAATCTGAATTCCGGTCTCCC
DNA 2: TGGTGGCTACGACGGGATT
B16: AAUAAGU (DNA:RNA)
RNA: B1 RNA with G25A, C27U, C28A, C30G
DNA 1: CAATCTGAATTCCGGTCTCCC
DNA 2: TGGTGGCTACGACGGGATT
B17: UGCUUAC (DNA:RNA)
RNA: B14 RNA with C25U, A27C, G28U, G29U, U30A, G31C
DNA 1: CAATCTGAATTCCGGTCTCCC
DNA 2: TGGTGGCTACGACGGGATT
B18: CAGAGGG (DNA:RNA)
RNA: B14 RNA with G26A, A27G, G28A, U30G
DNA 1: CAATCTGAATTCCGGTCTCCC
DNA 2: TGGTGGCTACGACGGGATT
B19: UCAGAGG (DNA:RNA)
RNA: B14 RNA with C25U, G26C, G29A, U30G
DNA 1: CAATCTGAATTCCGGTCTCCC
DNA 2: TGGTGGCTACGACGGGATT
B20: GCUAGGG (DNA:RNA)
RNA: B14 RNA with C25G, G26C, A27U, G28A, U30G
DNA 1: CAATCTGAATTCCGGTCTCCC
DNA 2: TGGTGGCTACGACGGGATT

biological target: T1, RBFOX1 RRM RbFoxmut (Fox-RRM*); experiment: EMSA; HiTS-Eq, 1 nM pool, 10 min; buffer printed only for the single-RNA assays: 10 mM Tris pH 7.5, 150 mM NaCl, 3.4 mM EDTA, 0.001% NP-40, 30 C; details: tags: His6 N-terminal (pET28a); label: 5' 32P
Procedure, shortened: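 Purified wild-type or mutant RbFox RRM at increasing concentrations was equilibrated with 1 nM of 5′-radiolabelled RNA carrying 7 randomized nucleotides for 10 min in 50 µL. Unbound RNA was separated by 8% native PAGE and sequenced. Relative association constants came from read-count changes of each RNA species compared with the control reaction, normalised to the cognate motif.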

Binder | binding signal
B1 | 0.0643 KA relative to UGCAUGU
B2 | 0.296 KA relative to UGCAUGU
B3 | 0.0632 KA relative to UGCAUGU
B4 | 0.0849 KA relative to UGCAUGU
B5 | 0.127 KA relative to UGCAUGU
B6 | 0.0882 KA relative to UGCAUGU
B7 | 0.0599 KA relative to UGCAUGU
B8 | 0.0644 KA relative to UGCAUGU
B9 | 0.188 KA relative to UGCAUGU
B10 | 0.072 KA relative to UGCAUGU
B11 | 0.0971 KA relative to UGCAUGU
B12 | 0.103 KA relative to UGCAUGU
B13 | 0.0523 KA relative to UGCAUGU
B14 | 0.142 KA relative to UGCAUGU
B15 | 0.102 KA relative to UGCAUGU
B16 | 0.0909 KA relative to UGCAUGU
B17 | 0.119 KA relative to UGCAUGU
B18 | 0.0898 KA relative to UGCAUGU
B19 | 0.0974 KA relative to UGCAUGU
B20 | 0.0709 KA relative to UGCAUGU
